# Reference: PubChem BioAssay AID1508642 (National Center for Advancing Translational Sciences (NCATS), 2021)
# Screen size: about 43,000 compounds; about 200 (0.47%) were called active. About 12% were inconclusive and are not listed. The call rests on the fitted dose curve; in most records, active means well fitted cell-killing curve with a large enough effect; inconclusive means small, poorly fitted or top-dose-only effect, or effect the other way; inactive means flat fitted curve, though single readings scatter. The list shows a part of the results.
# Assay: Cell viability qHTS assay in S16 Pmp22-F2sN cells; further: nearly all actives have a fitted effect of over 65% in size
# Conditions: S16 Pmp22-F2sN Schwann cells (luciferase reporters placed in the Pmp22 gene) viability, CellTiter-Glo, 24 h; series mostly up to 57.5 µM; activity change, negative = cytotoxicity: at the top concentration
# In short: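 Rat S16 Schwann reporter line, 24 h treatment with library compounds delivered at 23 nL per well. Cell viability by CellTiter-Glo luminescence.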
# On the % scale 0 is the no-effect control and ±100 the full control effect.
row,SMILES,"activity change, negative = cytotoxicity"
1,Cc1ccc(Cn2c(CO)cnc2SCc2cccc(F)c2)cc1,inactive: 6.51%
2,Cc1oc2ncn(C)c(=O)c2c1C(=O)N(Cc1ccccc1)C(C)C,inactive: -0.759%
3,Cc1ccccc1OCCCCn1c(C2CC(=O)N(c3ccccc3Cl)C2)nc2ccccc21 (stereo unspecified),inactive: 0.294%
4,Nc1c(C(=O)NCCc2ccccc2)nnn1CC(=O)Nc1ccc(Cl)cc1,inactive: 6.91%
5,O=C(CSc1nc2c([nH]c3ccccc32)c(=O)n1-c1ccccc1)c1ccc(Cl)cc1,inactive: 3.96%
6,C=Cc1ccc(Cn2c(C(=O)O)c(CNCCc3ccccc3)c3ccc(C)cc32)cc1,inactive: -7.37%
7,CCCn1c(CCC(=O)Nc2cccc(C)c2C)nc2cccnc21,inactive: 1.47%
8,COc1ccc(CC(=O)Nc2ccc3nc(Nc4cccc(Cl)c4)cc(C)c3c2)cc1,inactive: -8.73%
9,COCCCn1c(=O)c2sccc2n2c(CCCC(=O)Nc3ccc(F)c(F)c3)nnc12,inactive: 0.602%
10,Cc1ccc2nc(NC(=O)c3ccc(S(=O)(=O)N4CCCc5ccccc54)cc3)sc2c1,inactive: -1%
11,Cc1cc(C)nc(NS(=O)(=O)c2ccc(NC(=O)c3cc(=O)c4ccc(C)c(C)c4o3)cc2)n1,inactive: 1.76%
12,CN1CCN(C2(CNC(=O)c3ccc([N+](=O)[O-])cc3)CCCCC2)CC1,inactive: -10.4%
13,Cc1ccccc1-c1nc2scc(CCNC(=O)C(=O)Nc3ccc(F)cc3F)n2n1,inactive: -18.5%
14,O=C(C1CCCCC1)N(Cc1cccnc1)c1nc2c(F)cc(F)cc2s1,inactive: -19%
15,COc1ccc(OC)c(NC(=O)c2c(NCc3ccc(OC)c(OC)c3)sc3c2CCC(C)C3)c1 (stereo unspecified),inactive: 0.521%
16,Nc1c(C(=O)Nc2cccc(F)c2)sc2nc(-c3cccs3)ccc12,inactive: 18.4%
17,CCC(Oc1ccc(F)cc1)C(=O)Nc1nc2c(s1)CCCC2 (stereo unspecified),inactive: -2.59%
18,CCc1ccc(-c2cc(C)no2)cc1S(=O)(=O)NCc1ccco1,inactive: -14.9%
19,Cc1cccc(C(=O)N2CCCCC2CCN2CCCCC2)c1 (stereo unspecified),inactive: 13.2%
20,O=C(NC1CCCCC1)c1ccc(Cn2c(SCc3ccccc3)nc3cccnc32)cc1,inactive: -2.98%
21,COc1ccc(C(=O)N2c3nc(-c4ccco4)nn3C3(CCCCC3)[C@@H]3CCCC[C@@H]32)cc1OC,inactive: 3.34%
22,Cc1cccc(N2CCN(C(=O)C(C)n3nc(C)n4c(cc5occc54)c3=O)CC2)c1C (stereo unspecified),inactive: 19.9%
23,Cc1cc(C)c(NC(=O)CN2C(=O)C3(SCC(=O)N3c3ccc(F)cc3)c3ccccc32)c(C)c1 (stereo unspecified),inactive: -26.4%
24,Cc1cc(C)c(NC(=O)c2c(C)oc3c2C2=NCCN2C=N3)c(C)c1,inactive: -16.5%

row,SMILES,"activity change, negative = cytotoxicity"
1,CCCCCCc1cc2cc(-c3nnc(-c4cccc(Cl)c4)o3)c(=O)oc2cc1O,inactive: -3.18%
2,Cc1ccc(NC(=O)c2oc3ccc(S(=O)(=O)N4CCCCC4)cc3c2C)c(C)c1,inactive: -29.1%
3,Cc1ccc(S(=O)(=O)N2CCCc3cc(NS(=O)(=O)c4ccc(F)cc4)ccc32)cc1,inactive: -16.5%
4,CN(C)c1ccc(CNC(=O)C2CCN(S(=O)(=O)c3ccc4c(c3)oc(=O)n4C)CC2)cc1,inactive: 5.95%
5,COc1cccc(NC(=O)Cn2c(=O)n(Cc3ccc(C(=O)NCc4ccc5c(c4)OCO5)cc3)c(=O)c3ccccc32)c1,inactive: -19.5%
6,CCc1ccc(CNC(=O)Cn2nc(-c3ccc(Cl)cc3)ccc2=O)cc1,inactive: 3.99%
7,COc1ccc(C2c3c(n(C)c4ccccc34)C(=O)N2CC(=O)Nc2ccc(C)cc2Cl)cc1 (stereo unspecified),inactive: -20.3%
8,CCN(CC)S(=O)(=O)c1ccc(-c2csc(=Nc3cccc(C(F)(F)F)c3)n2Cc2ccc3c(c2)OCO3)cc1,inactive: 15.2%
9,Cc1ccc(N(CC(=O)Nc2ccc(F)cc2F)S(=O)(=O)c2cccs2)cc1,inactive: -22.7%
10,CCC(=O)C1=C(c2ccccc2)N(C(=O)CC)n2c(nnc2-c2ccccc2)S1,inactive: 2.33%
11,Cc1ccc(S(=O)(=O)NCCc2nnc3ccc(SCc4ccccc4F)nn23)cc1,inactive: -18.2%
12,COc1ccc(CCNC(=O)c2ccc3c(c2)N(Cc2ccccc2Cl)C(=O)c2ccccc2S3)cc1OC,inactive: 1.1%
13,O=C(COc1ccccc1F)Nc1nnc(SCc2cc(=O)n3ccccc3n2)s1,inactive: -2.45%
14,Cc1ccccc1Cn1nnc2sc3c(c2c1=O)CCCC3,inactive: 4.29%
15,CCOC(=O)c1c(NC(=O)Nc2ccc(F)cc2)sc(C(=O)N(C)C)c1C,inactive: 3.81%
16,Cc1ccc(CN2c3ccccc3-c3nc(SCC(=O)NCc4ccccc4)ncc3S2(=O)=O)cc1,inactive: -6.71%
17,O=C(CS(=O)(=O)c1cccc2nsnc12)NCc1ccccc1Cl,inactive: 9.45%
18,COc1ccc(C(=O)NCCc2csc(-c3ccc(Cl)cc3)n2)cc1,inactive: 14.2%
19,Cn1cc(CCCC(=O)NCc2cccc(Br)c2)c2ccccc21,inactive: -28.5%
20,COc1ccc(-c2cccc(NS(=O)(=O)c3cc(C(F)(F)F)ccc3Cl)c2)nn1,inactive: 9.97%
21,CCc1nc2ccc(C(=O)NCc3ccccc3C)cc2nc1CC,inactive: -0.446%
22,O=c1c(NCc2cccs2)nccn1-c1ccccc1,inactive: -22.9%
23,CCN(CC)c1ccc(C(=O)N2CCc3c([nH]c4ccccc34)C2c2ccc(F)cc2)cc1 (stereo unspecified),inactive: -9.89%
24,Cc1ccc(NC(=O)c2cccc3c(=O)c4c([nH]c23)CCCC4)c(C)c1,inactive: -10.4%

row,SMILES,"activity change, negative = cytotoxicity"
1,CCOc1ccc(NC(=O)Nc2nnc(N3CCCCC3C)s2)cc1 (stereo unspecified),inactive: -4.81%
2,CCOC(=O)c1sc2ccccc2c1S(=O)(=O)Nc1ccc(OC)c(Cl)c1,inactive: -8.54%
3,Cc1ccc(NC(=O)Nc2nnc(SCC(=O)N(C(C)C)C(C)C)s2)cc1,inactive: 4.49%
4,COc1cccc(CNC(=O)c2c(C)nn(-c3ccc(F)cc3)c2-n2cccc2)c1,inactive: 1.69%
5,COc1ccc(C(=O)NCCSc2c[nH]c3ccccc23)cc1OC,inactive: -14.1%
6,Clc1ccc(CSc2ccc(-c3cccs3)nn2)cc1,inactive: -3.29%
7,CCC(CC)C(=O)N1c2ccccc2C(C)(c2ccccc2)CC1(C)C (stereo unspecified),inactive: -25.2%
8,CSc1ncc(C(=O)Nc2cc(C)cc(C)c2)c(-c2ccccc2)n1,inactive: -4.33%
9,COc1ccc(-n2c(=O)c3c4c(sc3n(Cc3ccc(F)cc3)c2=O)CN(C(C)=O)CC4)c(OC)c1,inactive: 31.1%
10,CCc1ccc2oc(-c3ccc(C)c(NC(=O)c4cc([N+](=O)[O-])ccc4N4CCOCC4)c3)nc2c1,inactive: -13.2%
11,CCCCc1ccc(-n2nc3ccc(NC(=O)c4cc5ccccc5o4)cc3n2)cc1,inactive: -25.4%
12,CCOCCCn1c(SCC(=O)Nc2ccccc2CC)nc2ccccc2c1=O,inactive: -11.5%
13,CCOC(=O)Cn1c(=O)oc2cc(S(=O)(=O)N3CCN(c4cccc(Cl)c4)CC3)ccc21,inactive: 1.18%
14,O=C(O)c1sc(Nc2ccccc2)nc1-c1ccccc1,inactive: -4.28%
15,CC(=O)N1CCc2c(sc3c2c(=O)n(Cc2ccccc2)c(=O)n3Cc2ccc(Cl)cc2)C1,inactive: 9.49%
16,Cc1cc(C)c(Cn2c(=O)n(CCC(=O)NCCc3ccccc3)c(=O)c3ccccc32)c(C)c1,inactive: 0.182%
17,COc1ccc(OC)c(CCNC(=O)c2c(C)oc3ncn(CC(C)C)c(=O)c23)c1,inactive: 13.2%
18,CN1CCN(C(CNC(=O)c2ccc(F)cc2)c2ccc3c(c2)OCO3)CC1 (stereo unspecified),inactive: -0.217%
19,COC(=O)c1sccc1S(=O)(=O)N(CC(=O)Nc1cc(C)ccc1C)c1ccc(C)c(C)c1,inactive: -24.8%
20,Cc1ccc(N2CC(NC(=O)c3ccc(S(=O)(=O)N(C)C)cc3)CC2=O)cc1C (stereo unspecified),inactive: -0.0716%
21,CCC(C)NC(=O)c1ccc2c(c1)sc1nc(-c3ccc(OC)cc3)cn12 (stereo unspecified),inactive: 16.9%
22,COc1ccccc1CNC(=O)CSc1nc(-c2ccc(OC)c(OC)c2)cc(C(F)(F)F)n1,inactive: -17%
23,CCOc1ccc(CCNC(=O)c2ccc3c(c2)N(Cc2ccc(F)cc2)CCS3)cc1,inactive: -1.07%
24,O=C(NCC(c1cccs1)S(=O)(=O)c1cccs1)c1ccc(F)c(F)c1 (stereo unspecified),inactive: 0.304%

row,SMILES,"activity change, negative = cytotoxicity"
1,O=C(CSc1nc2c([nH]c3ccccc32)c(=O)n1-c1cccc(Cl)c1)N1CCCC1,inactive: 6.24%
2,Cc1c(C)n(Cc2ccccc2)c2ccc(C(=O)NCC(C)c3ccccc3)cc12 (stereo unspecified),inactive: -16.8%
3,Cc1ccc(N2CCN(S(=O)(=O)c3nnc(NC(=O)c4ccccc4)s3)CC2)cc1,inactive: -9.87%
4,COc1ccc(N2CCN(C(=O)c3cc4c(=O)oc5ccc(C)cc5c4s3)CC2)cc1,inactive: -2.42%
5,CCOc1ccc(N2CC(NC(=O)c3ccc4c(c3)OCO4)CC2=O)cc1 (stereo unspecified),inactive: 2.48%
6,CCCCNc1nc2c(S(=O)(=O)c3ccc(C)cc3)nnn2c2ccsc12,inactive: 7.78%
7,CCOCCc1nnc(NC(=O)C(=O)c2cc(C)n(-c3ccc(C)c(C)c3)c2C)s1,inactive: -0.448%
8,O=C(Cn1cnc2nc3c(cc2c1=O)CCCC3)Nc1ccc(F)cc1Cl,inactive: -0.46%
9,O=C(Nc1ccccc1C(=O)OCc1cc(=O)n2nc(C3CC3)sc2n1)c1ccc(Cl)cc1,inactive: -1.42%
10,Cc1ccc(C)c(N2CCN(c3nc4ccc(C)cc4nc3-n3nc(C)cc3C)CC2)c1,inactive: 4.43%
11,Cc1cc(C)n(CCC(=O)Nc2ccc(Cl)cc2)n1,inactive: 4.04%
12,CCOc1ccc(CCNC(=O)c2ccc(-n3c(C)cc4c3CCCC4)cc2)cc1OCC,inactive: 2.25%
13,CCOC(=O)CNC(=O)c1cc2c(=O)oc3ccccc3c2s1,inactive: 0.779%
14,Cc1cccc(Cn2cc(S(=O)(=O)c3ccccc3)c(=O)c3cc(F)c(N4CCOCC4)cc32)c1,inactive: -24%
15,Cc1cccc(C)c1NC(=O)C1CCCN1S(=O)(=O)c1ccccc1 (stereo unspecified),inactive: 1.62%
16,CN(C)c1ccc(CNC(=O)Cc2ccc(NC(=O)N3CCCCc4ccccc43)cc2)cc1,inactive: 15.9%
17,COc1ccc(N2CCN(CCCNC(=O)c3nnc(Cc4ccc(F)cc4)o3)CC2)cc1,inactive: -16.5%
18,Cc1ccccc1OC(=O)c1nc(SCc2ccccc2F)ncc1Cl,inactive: -13.5%
19,Cc1ccc2c(CC(=O)Nc3ccc(S(=O)(=O)N4CCCCC4C)cc3)coc2c1C (stereo unspecified),inactive: -16.3%
20,CCc1ccc2ncc3c(-c4ccc(F)cc4)nn(CC(=O)NC4CCCCC4)c3c2c1,inactive: 1.2%
21,CCOC(=O)Cn1c(=O)n(-c2cccc(Cl)c2)c2nc(-c3ccccc3Cl)nc(C(N)=O)c21,inactive: 18%
22,CCOc1ccc(S(=O)(=O)N(CC(=O)Nc2ccc(OC)cc2OC)c2ccccc2)cc1,inactive: -0.97%
23,Cc1nn(CCCC(=O)NCc2ccccc2Br)c(=O)c2c1sc1ccccc12,inactive: 5.74%
24,O=C(NCc1ccccc1F)C1CCCN(C(=O)N2CCOc3ccccc32)C1 (stereo unspecified),inactive: -2.28%
